Experimental data from the supplement of paper PMC11417369.
± gives the standard deviation of the averaged measurements. This is one part of the list.

test system: PfAP2-I AP2 domain 3 (GST-tagged); assay: gcPBM binding intensity (ln(normalized median fluorescence intensity)); higher = stronger DNA binding
Method in brief: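 Using an Agilent 4 × 180k array, primer-extended double-stranded 36-bp intergenic genomic probes and negative controls were exposed for 1 h to GST-fused P. falciparum DNA-binding domains expressed in E. coli. Binding was carried out in 1× PBS with 1% milk, 0.2 mg/ml BSA, 0.5% salmon testes DNA and 0.03% Triton X-100, and protein was detected with Alexa488 anti-GST antibody and a 488 nm scan. Binding intensity is the highest Masliner-normalised natural-log median intensity across replicate spots of either probe orientation.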

Row | Sequence | gcPBM binding intensity (ln)
1 | ACTCTTGATCTGAATGCACACAATAAATTATATAAA [CACACA_site1438] | 9.56 ± 0.22
2 | GATATTCATAGAAACACACATACAAATTATGTATAT [CACACA_site144] | 7.49 ± 0.54
3 | TTGCCCATTTAATTAACACACAAATATTTATATTCT [CACACA_site738] | 8.21 ± 0.51
4 | GTTAAATAATATATATGTACATACATAAGTGTTACT [XGTACX_site4778] | 7.85 ± 0.44
5 | ATTTCCTTTTGTTTCAGTACATAATTTTTTTTTTTT [XGTACX_site4842] | 7.88 ± 0.62
6 | TTTTTAAAGTTTTATACACACACCAAAATTATTCTA [CACACA_site600] | 7.79 ± 0.42
7 | TAATTGTACGCCAATACACACAGAATTAAAATGTAG [CACACA_site4234] | 8.15 ± 0.24
8 | TATGTGCACCCATGTACATGCGGACATATGTTATAT [TGCATGCA_site383] | 11 ± 0.9
9 | ATGGCCACTGTGAAATGTACAAAAAAAAAATACAAT [XGTACX_site2874] | 7.87 ± 0.63
10 | TATGTATATATATATATATATATATATATATATATA [TGCATGCA_negctrl_site491] | 9.12 ± 0.52
11 | AGTAGTCTGGAGAAAAGTACATAGTATCTGGTAACC [XGTACX_site2024] | 7.8 ± 0.63
12 | TTTTACAATAATAAGTAGATCTAAATAAAGATTTAA [GTGCAC_negctrl_site547] | 7.34 ± 0.51
13 | CATACAAATTAATATGTACACACAAATATATATATA [CACACA_site8605] | 9.15 ± 0.38
14 | AAAAAAAAAAAATAATGTACATATGTATTTGAGAAA [XGTACX_site3572] | 7.66 ± 0.4
15 | TTCCAAAATTGCACATGTACAAAATTCTCCAATATG [XGTACX_site3419] | 8.54 ± 0.33
16 | TTTATATTATTTAATGAGAAATAATTATAAACAATT [TGCATGCA_negctrl_site65] | 7.57 ± 0.69
17 | TTTTTTTTTTTTTTTTGTACATATTTTAATTTGTTT [XGTACX_site6297] | 7.75 ± 0.26
18 | AAATCAACGATCTATACATGCATATAATATATACAT [TGCATGCA_site25] | 7.42 ± 0.6
19 | TAATAATACCCTTGCTGTACCAAATAAAGTTGAATA [XGTACX_site6922] | 7.83 ± 0.47
20 | GTAGCAATAAACATATGTACATATATATATTTTTTC [XGTACX_site5814] | 7.92 ± 0.45
21 | ATTAAAAAGACAAAAAAAAAATTTTTTTTTTTTTTT [CACACA_negctrl_site1027] | 8.21 ± 0.74
22 | TTTCATAACAAAAAAGTGCAAAATAGCACGAACATT [GTGCAC_site9703] | 10.66 ± 0.049
23 | AGAAAAAGGAGAAAAAGTACAAAACGGAGTAGTATT [XGTACX_site3858] | 7.98 ± 0.96
24 | AAAAATTATATACATCATAGAATTAACATTTTAAAT [GTGCAC_negctrl_site369] | 7.29 ± 0.53
